Experimental data from paper PMC11094025.
No constants are given. Whether binding was seen depends on the method and setting. For some of these results: In cells and extracts the contact can be indirect. Some entries that bind do so weakly or less than the wild type. For some of these results: Sequences can lack the tags named with a protein. Blank lines part the entries; values can stand above or below the molecule they belong to.

Protein sequences, listed by entry. Tags and fused reporters are not part of them. Lines headed by an entry give the natural chain unless they say otherwise; changes in a name come on top. Chains listed by the source or under a name are the forms on record and can include a tag or linker.
UniProt O95292: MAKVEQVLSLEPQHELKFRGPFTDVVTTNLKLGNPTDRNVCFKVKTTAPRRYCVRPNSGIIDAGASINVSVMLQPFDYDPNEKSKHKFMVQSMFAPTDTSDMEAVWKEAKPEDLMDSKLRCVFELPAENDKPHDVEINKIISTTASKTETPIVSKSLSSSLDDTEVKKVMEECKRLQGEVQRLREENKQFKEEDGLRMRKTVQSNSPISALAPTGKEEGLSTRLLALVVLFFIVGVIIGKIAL
GST-VAPB-MSP-K87D/M89D (O95292, form named): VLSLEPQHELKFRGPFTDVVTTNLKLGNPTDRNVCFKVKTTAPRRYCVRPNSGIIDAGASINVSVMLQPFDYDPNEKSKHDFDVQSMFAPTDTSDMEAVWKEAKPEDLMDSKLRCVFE
UniProt Q9BXW6: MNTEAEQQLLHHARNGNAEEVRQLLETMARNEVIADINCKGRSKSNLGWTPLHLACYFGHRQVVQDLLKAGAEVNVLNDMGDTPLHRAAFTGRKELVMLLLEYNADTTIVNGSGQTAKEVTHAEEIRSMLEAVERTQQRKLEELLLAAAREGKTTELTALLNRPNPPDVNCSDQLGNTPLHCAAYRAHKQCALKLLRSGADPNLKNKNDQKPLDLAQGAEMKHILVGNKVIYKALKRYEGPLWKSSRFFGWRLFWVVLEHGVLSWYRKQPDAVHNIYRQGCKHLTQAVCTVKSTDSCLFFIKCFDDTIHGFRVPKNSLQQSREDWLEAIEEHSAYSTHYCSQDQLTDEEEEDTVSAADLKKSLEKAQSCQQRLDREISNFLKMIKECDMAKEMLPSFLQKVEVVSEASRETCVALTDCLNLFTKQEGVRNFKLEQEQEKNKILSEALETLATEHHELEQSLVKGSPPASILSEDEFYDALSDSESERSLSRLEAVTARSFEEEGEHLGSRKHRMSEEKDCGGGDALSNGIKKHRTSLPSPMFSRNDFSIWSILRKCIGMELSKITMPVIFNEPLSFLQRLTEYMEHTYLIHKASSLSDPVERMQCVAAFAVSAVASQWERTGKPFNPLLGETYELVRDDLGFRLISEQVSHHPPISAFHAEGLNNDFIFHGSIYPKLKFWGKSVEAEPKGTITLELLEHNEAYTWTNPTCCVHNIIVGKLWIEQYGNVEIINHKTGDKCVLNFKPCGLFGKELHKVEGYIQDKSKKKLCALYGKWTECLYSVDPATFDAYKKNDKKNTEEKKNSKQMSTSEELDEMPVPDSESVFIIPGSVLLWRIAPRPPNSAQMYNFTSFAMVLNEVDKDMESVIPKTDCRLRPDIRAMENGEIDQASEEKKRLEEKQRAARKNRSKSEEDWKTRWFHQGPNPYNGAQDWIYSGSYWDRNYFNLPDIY
UniProt Q14739: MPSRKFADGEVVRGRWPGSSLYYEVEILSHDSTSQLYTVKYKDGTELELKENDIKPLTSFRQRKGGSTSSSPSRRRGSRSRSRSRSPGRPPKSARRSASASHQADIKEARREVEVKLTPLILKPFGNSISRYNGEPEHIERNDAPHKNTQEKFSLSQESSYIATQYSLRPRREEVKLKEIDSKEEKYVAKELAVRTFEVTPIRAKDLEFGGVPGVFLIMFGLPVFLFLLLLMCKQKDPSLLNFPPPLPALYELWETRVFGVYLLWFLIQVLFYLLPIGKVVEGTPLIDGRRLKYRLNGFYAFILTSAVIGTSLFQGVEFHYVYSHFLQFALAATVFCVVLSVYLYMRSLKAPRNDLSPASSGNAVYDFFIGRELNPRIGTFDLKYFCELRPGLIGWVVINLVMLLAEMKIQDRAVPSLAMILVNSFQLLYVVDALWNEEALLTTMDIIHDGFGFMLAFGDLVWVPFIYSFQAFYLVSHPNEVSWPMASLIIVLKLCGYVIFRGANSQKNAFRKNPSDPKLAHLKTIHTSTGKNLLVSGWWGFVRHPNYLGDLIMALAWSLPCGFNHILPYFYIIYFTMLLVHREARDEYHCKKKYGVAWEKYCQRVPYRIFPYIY

How the values were obtained:
HA-VAPB-K87D/M89D = HA-VAPB-K87D/M89D (UniProt O95292); test: proximity ligation; Duolink PLA in fixed HeLa Flp-In T-REx cells expressing HA-VAPB or HA-VAPB-KD/MD, anaphase cells, signals around chromatin; anti-HA and antibody against the partner
HA-VAPB (wild type) [1] = target: HA-VAPB (wild type) (UniProt O95292); test: as above
GST-VAPB-MSP-K87D/M89D = GST-VAPB-MSP-K87D/M89D (UniProt O95292); test: pull-down; GST proteins (200 pmol) on GST-Selector beads, 3 h with lysate of mitotic (DME) HeLa or HEK293T cells; Western blot; only the target purified
[2] = target: GST-VAPB-MSP (wild-type MSP-domain of VAPB fused to a GST-tag) (UniProt O95292); test: as above
[3] = target: GST-VAPB-MSP (wild-type MSP-domain of VAPB fused to a GST-tag) (UniProt O95292); test: pull-down; GST proteins (200 pmol) on GST-Selector beads, 3 h with lysate of asynchronous HeLa cells; Western blot; only the target purified
[4] = target: GST-VAPB-MSP (wild-type MSP-domain of VAPB fused to a GST-tag) (UniProt O95292); test: condition: only lysate treated with λ-phosphatase (7 U/µl, 1 h at 30 °C); pull-down; GST proteins (200 pmol) on GST-Selector beads, 3 h with lysate of asynchronous HeLa cells; Western blot; only the target purified
[5] = target: GST-VAPB-MSP (wild-type MSP-domain of VAPB fused to a GST-tag) (UniProt O95292); test: condition: only lysate treated with λ-phosphatase (7 U/µl, 1 h at 30 °C); pull-down; GST proteins (200 pmol) on GST-Selector beads, 3 h with lysate of mitotic (DME) HeLa or HEK293T cells; Western blot; only the target purified
[6] = target: T1, GFP-ELYS(1018-1642), wild type (human (HeLa cDNA)) (UniProt Q8WYP5); test: co-IP; GFP-ELYS(1018-1642) versions precipitated with GFP-Selector from lysates of mitotic (DME) stable HeLa Flp-In T-REx cells; blot for endogenous VAPB
T1 sequence: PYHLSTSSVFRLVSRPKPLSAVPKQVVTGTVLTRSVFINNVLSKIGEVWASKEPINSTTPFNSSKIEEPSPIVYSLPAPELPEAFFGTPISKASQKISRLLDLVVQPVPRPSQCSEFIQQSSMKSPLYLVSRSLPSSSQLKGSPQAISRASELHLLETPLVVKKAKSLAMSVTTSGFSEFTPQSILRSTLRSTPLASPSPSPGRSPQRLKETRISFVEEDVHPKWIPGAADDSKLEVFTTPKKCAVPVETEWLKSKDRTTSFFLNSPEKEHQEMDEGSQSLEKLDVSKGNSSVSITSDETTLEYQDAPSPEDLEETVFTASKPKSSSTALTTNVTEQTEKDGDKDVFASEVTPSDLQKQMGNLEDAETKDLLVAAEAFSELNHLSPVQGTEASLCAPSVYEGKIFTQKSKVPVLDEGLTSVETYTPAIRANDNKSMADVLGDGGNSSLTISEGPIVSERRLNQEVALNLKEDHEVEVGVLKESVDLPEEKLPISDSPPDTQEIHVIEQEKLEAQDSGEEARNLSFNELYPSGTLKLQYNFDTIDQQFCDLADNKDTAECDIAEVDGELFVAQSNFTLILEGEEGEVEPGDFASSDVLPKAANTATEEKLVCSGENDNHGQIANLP

[7] = target: T2, GFP-ELYS(1018-1642) S1314A (human (HeLa cDNA)) (UniProt Q8WYP5); test: as above
T2 sequence: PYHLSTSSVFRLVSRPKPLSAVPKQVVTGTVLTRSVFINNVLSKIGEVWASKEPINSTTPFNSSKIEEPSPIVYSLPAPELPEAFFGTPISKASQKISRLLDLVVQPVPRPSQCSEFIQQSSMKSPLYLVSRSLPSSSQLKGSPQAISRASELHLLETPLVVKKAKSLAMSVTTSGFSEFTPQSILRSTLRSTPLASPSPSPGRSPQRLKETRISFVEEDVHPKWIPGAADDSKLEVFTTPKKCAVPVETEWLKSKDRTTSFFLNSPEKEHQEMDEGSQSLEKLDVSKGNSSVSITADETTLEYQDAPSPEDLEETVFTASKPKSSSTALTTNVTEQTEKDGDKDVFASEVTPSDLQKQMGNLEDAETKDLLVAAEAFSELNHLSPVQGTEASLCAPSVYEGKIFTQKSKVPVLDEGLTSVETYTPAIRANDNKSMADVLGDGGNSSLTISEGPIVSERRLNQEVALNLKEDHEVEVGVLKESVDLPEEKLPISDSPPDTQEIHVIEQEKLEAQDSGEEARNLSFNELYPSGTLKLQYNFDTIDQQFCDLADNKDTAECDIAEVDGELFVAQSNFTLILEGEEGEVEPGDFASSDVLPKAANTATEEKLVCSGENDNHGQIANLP

[8] = target: T3, GFP-ELYS(1018-1642) S1314D (human (HeLa cDNA)) (UniProt Q8WYP5); test: as above
T3 sequence: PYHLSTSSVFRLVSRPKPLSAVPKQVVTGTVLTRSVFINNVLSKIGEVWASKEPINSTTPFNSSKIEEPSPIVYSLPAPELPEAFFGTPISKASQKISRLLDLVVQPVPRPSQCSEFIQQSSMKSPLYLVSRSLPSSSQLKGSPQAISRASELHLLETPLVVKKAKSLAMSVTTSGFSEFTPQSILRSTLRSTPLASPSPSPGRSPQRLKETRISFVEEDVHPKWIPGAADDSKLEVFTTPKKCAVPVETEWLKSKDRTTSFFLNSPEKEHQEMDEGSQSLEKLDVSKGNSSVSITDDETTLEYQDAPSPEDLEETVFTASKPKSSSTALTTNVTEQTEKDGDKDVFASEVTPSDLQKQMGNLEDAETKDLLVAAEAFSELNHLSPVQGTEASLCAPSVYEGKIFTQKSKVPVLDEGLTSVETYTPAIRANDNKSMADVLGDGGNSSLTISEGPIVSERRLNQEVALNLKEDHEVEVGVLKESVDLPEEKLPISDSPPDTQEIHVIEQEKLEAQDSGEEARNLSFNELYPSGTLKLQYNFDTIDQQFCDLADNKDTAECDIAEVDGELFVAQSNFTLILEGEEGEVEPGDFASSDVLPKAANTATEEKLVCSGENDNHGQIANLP

[9] = target: T4, ORP1-peptide (amino acid residues 469-485) (UniProt Q9BXW6); test: pull-down; 20 nmol biotinylated peptide on neutravidin agarose, 30 µg purified protein in 500 µl, 2 h at 4 °C, 50 mM Tris-HCl pH 7.4, 75 mM NaCl, 1 mM EDTA, 1% Triton X-100, 0.25 mM DTT; Coomassie; both purified
T4 sequence (peptide, biotin at the N-terminus): SILSEDEFYDALSDSES

[10] = target: T5, His-ELYS(1018-1642)-MBP S1314D (human (HeLa cDNA)) (UniProt Q8WYP5); test: pull-down; 100 pmol His-ELYS(1018-1642)-MBP on MBP-Selector beads, 300 pmol GST or GST-MSP-VAPB, 2 h at 4 °C, 50 mM Tris HCl pH 7.4, 150 mM NaCl, hemoglobin 1.25 mg/ml; Coomassie; both purified
T5 sequence: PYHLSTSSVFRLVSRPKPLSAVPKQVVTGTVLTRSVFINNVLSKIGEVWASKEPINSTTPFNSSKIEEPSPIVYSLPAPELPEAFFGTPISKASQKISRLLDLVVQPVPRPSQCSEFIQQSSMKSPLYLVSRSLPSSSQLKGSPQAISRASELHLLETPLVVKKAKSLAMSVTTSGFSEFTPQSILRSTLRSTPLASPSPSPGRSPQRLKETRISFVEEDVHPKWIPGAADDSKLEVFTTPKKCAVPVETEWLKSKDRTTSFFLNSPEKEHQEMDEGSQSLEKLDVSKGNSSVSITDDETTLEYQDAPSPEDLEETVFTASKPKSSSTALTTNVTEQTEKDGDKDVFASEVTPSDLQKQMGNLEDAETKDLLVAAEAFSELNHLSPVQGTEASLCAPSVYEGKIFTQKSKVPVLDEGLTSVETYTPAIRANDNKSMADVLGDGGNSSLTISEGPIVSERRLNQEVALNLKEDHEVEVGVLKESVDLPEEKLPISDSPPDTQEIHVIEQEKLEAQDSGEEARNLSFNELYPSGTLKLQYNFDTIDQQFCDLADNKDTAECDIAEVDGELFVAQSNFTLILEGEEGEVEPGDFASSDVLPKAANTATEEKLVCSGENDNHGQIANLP

[11] = target: GST-VAPB-MSP (wild-type MSP-domain of VAPB fused to a GST-tag) (UniProt O95292); test: pull-down; GST proteins (200 pmol) on GST-Selector beads, 3 h with lysate of asynchronous HeLa cells; Western blot; only the target purified; remark: listed apart in the source
HA-VAPB (wild type) [12] = target: HA-VAPB (wild type) (UniProt O95292); test: proximity ligation; Duolink PLA in fixed HeLa Flp-In T-REx cells expressing HA-VAPB or HA-VAPB-KD/MD, interphase cells, total cellular signals; anti-HA and anti-OSBPL9

Molecule: lamin B receptor (LBR), endogenous (from UniProt Q14739 1-615)
binding (HA-VAPB-K87D/M89D): binds | binding (HA-VAPB (wild type) [1]): binds

Molecule: ELYS (embryonic large molecule derived from yolk sac), endogenous, HeLa (from UniProt Q8WYP5 1-2266)
binding (GST-VAPB-MSP-K87D/M89D): no binding | binding [2]: binds | binding [3]: binds weakly | binding [4]: no binding | binding [5]: no binding

Molecule: ELYS, endogenous, HEK293T (from UniProt Q8WYP5 1-2266)
binding [2]: binds

Results, then the molecule that gave them:

binding [6]: binds | binding [7]: binds | binding [8]: binds
Molecule: VAPB (Vesicle-Associated-membrane Protein-associated protein B), endogenous (from UniProt O95292 1-243)

binding [9]: binds | binding [10]: binds
Molecule: GST-VAPB-MSP (wild-type MSP-domain of VAPB fused to a GST-tag) (from UniProt O95292 7-124) (domain or fragment)

binding [11]: binds
B1: ACBD5 (acyl-CoA binding domain protein), endogenous (protein, UniProt Q5T8D3 1-534)
chain: MFQFHAGSWESWCCCCLIPADRPWDRGQHWQLEMADTRSVHETRFEAAVKVIQSLPKNGSFQPTNEMMLKFYSFYKQATEGPCKLSRPGFWDPIGRYKWDAWSSLGDMTKEEAMIAYVEEMKKIIETMPMTEKVEELLRVIGPFYEIVEDKKSGRSSDITSVRLEKISKCLEDLGNVLTSTPNAKTVNGKAESSDSGAESEEEEAQEEVKGAEQSDNDKKMMKKSADHKNLEVIVTNGYDKDGFVQDIQNDIHASSSLNGRSTEEVKPIDENLGQTGKSAVCIHQDINDDHVEDVTGIQHLTSDSDSEVYCDSMEQFGQEESLDSFTSNNGPFQYYLGGHSSQPMENSGFREDIQVPPGNGNIGNMQVVAVEGKGEVKHGGEDGRNNSGAPHREKRGGETDEFSNVRRGRGHRMQHLSEGTKGRQVGSGGDGERWGSDRGSRGSLNEQIALVLMRLQEDMQNVLQRLQKLETLTALQAKSSTSTLQTAPQPTSQRPSWWPFEMSPGVLTFAIIWPFIAQWLVYLYYQRRRRKLN

binding (HA-VAPB (wild type) [12]): binds | binding [11]: binds
B2: OSBPL9, endogenous (protein, UniProt Q96SU4 1-736)
chain: MASIMEGPLSKWTNVMKGWQYRWFVLDYNAGLLSYYTSKDKMMRGSRRGCVRLRGAVIGIDDEDDSTFTITVDQKTFHFQARDADEREKWIHALEETILRHTLQLQGLDSGFVPSVQDFDKKLTEADAYLQILIEQLKLFDDKLQNCKEDEQRKKIETLKETTNSMVESIKHCIVLLQIAKDQSNAEKHADGMISTINPVDAIYQPSPLEPVISTMPSQTVLPPEPVQLCKSEQRPSSLPVGPVLATLGHHQTPTPNSTGSGHSPPSSSLTSPSHVNLSPNTVPEFSYSSSEDEFYDADEFHQSGSSPKRLIDSSGSASVLTHSSSGNSLKRPDTTESLNSSLSNGTSDADLFDSHDDRDDDAEAGSVEEHKSVIMHLLSQVRLGMDLTKVVLPTFILERRSLLEMYADFFAHPDLFVSISDQKDPKDRMVQVVKWYLSAFHAGRKGSVAKKPYNPILGEIFQCHWTLPNDTEENTELVSEGPVPWVSKNSVTFVAEQVSHHPPISAFYAECFNKKIQFNAHIWTKSKFLGMSIGVHNIGQGCVSCLDYDEHYILTFPNGYGRSILTVPWVELGGECNINCSKTGYSANIIFHTKPFYGGKKHRITAEIFSPNDKKSFCSIEGEWNGVMYAKYATGENTVFVDTKKLPIIKKKVRKLEDQNEYESRSLWKDVTFNLKIRDIDAATEAKHRLEERQRAEARERKEKEIQWETRLFHEDGECWVYDEPLLKRLGAAKH
